Test results published in PMC4336329 (PLoS ONE, 2015).
Hit rate of the full screen: of about 310,000 compounds, about 2,200 (0.71%) showed an effect of 50% or more. The effect is printed as a negative number. The list shows a part of the results.

Target: human ether-à-go-go-related gene (hERG) potassium channel (human, UniProt Q12809)
Assay: primary screen, population patch clamp on CHO cells stably expressing hERG

Sequence of human ether-à-go-go-related gene (hERG) potassium channel (Q12809 whole entry, looked up): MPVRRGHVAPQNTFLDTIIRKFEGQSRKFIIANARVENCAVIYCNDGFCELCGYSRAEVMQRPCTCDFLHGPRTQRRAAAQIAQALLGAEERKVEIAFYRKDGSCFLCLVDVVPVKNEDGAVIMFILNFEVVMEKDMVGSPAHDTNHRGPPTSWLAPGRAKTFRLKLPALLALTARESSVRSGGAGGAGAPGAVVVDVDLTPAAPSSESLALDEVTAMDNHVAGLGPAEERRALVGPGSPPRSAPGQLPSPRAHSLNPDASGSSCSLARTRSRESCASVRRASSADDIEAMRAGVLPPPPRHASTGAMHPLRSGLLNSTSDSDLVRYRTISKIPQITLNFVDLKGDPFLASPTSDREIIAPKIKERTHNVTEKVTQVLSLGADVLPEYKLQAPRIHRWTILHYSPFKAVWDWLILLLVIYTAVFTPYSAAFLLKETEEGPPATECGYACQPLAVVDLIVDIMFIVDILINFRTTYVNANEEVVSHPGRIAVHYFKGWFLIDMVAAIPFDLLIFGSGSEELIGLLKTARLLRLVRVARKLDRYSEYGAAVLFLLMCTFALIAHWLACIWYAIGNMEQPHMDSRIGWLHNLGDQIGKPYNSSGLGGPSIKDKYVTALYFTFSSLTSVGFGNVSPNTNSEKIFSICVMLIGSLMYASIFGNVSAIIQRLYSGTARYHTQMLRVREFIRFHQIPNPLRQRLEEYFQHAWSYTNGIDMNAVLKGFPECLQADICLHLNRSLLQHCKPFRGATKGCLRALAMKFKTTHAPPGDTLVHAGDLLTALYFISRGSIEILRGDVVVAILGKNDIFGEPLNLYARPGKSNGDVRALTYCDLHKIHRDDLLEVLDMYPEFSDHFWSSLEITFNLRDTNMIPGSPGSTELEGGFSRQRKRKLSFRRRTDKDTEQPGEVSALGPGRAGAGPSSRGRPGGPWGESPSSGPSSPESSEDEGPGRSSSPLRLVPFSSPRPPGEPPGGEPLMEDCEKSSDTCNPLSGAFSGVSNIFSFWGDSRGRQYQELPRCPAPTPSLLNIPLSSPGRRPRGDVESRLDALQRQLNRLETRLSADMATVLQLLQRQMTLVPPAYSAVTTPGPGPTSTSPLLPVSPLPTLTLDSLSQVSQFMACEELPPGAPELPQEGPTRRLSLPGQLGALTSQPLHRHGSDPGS

| Structure (SMILES) | hERG current change (%, negative = inhibition) at 1uM [%] |
| --- | --- |
| CC(=O)c1cc(NC(=O)c2ccc(C)cc2)c(=O)oc1C | 12.5 |
| N#CC[C@H](Cc1ccccc1)N1CCN(Cc2ccccc2)CCC1=O | 6.36 |
| COC(=O)c1cc2sc(Cl)cc2n1Cc1nc(-c2ccccc2)oc1C | 6.98 |
| COc1ccc2c(CC(=O)Nc3ccccc3OC)coc2c1 | 5.01 |
| CN(Cc1nc2ccccc2c(=O)[nH]1)C(=O)c1ccc(S(=O)(=O)N2CCCC2)cc1 | -10.9 |
| Cc1c(NC(=O)C2CCCN2S(=O)(=O)c2ccc(Cl)cc2)c(=O)n(-c2ccccc2)n1C (centres unmarked) | 0.321 |
| CCc1ccc(/C=C(/C#N)C(N)=S)s1 | 15 |
| Cc1nc(C)c(C(=O)C2=C(O)C(=O)N(CCN3CCOCC3)C2c2cccs2)s1 (centres unmarked) | 15 |
| COc1ccc(NC(=O)c2cccc(Cn3cc(Br)c([N+](=O)[O-])n3)c2)c(C)c1 | -18.1 |
| O=C(COC(=O)CNS(=O)(=O)c1cccc(Br)c1)Nc1ccccc1Sc1ccccc1 | 12.1 |
| O=C(Nc1cnn(C23CC4CC(CC(C4)C2)C3)c1)c1cnn2c(C(F)(F)F)cc(-c3ccco3)nc12 | 3.92 |
| COCCn1nnnc1C(c1ccccc1OC)N1CCN(c2ccccc2)CC1.Cl (centres unmarked) | 6.17 |
| CC(C)(C)c1ccccc1NC(=O)CN1C(=O)NC2(CCCC2)C1=O | 9.44 |
| O=C(CSc1ncnc2nc[nH]c12)N1CCN(c2ccccc2)CC1 | 1.06 |
| Cc1ccc(C)c(NC(=S)N(C2CCCCC2)C(C)c2cccnc2)c1 (centres unmarked) | -8.08 |
| Cc1cc(S(=O)(=O)NC2CCCCC2)ccc1OCC(=O)NCc1ccccn1 | 5.58 |
| O=C1c2cccc(O)c2C(=O)c2c(O)cc(CO)cc21 | 10.1 |
| CC1=CCC2COC(c3ccc[n+](Cc4ccccc4)c3)C1C2.[Cl-] (centres unmarked) | 3.07 |
| COC(=O)c1ccc(C(=O)OC)c(NC(=S)N2CC(C)CC(C)C2)c1 (centres unmarked) | 10.6 |
| Cc1ccc(S(=O)(=O)N(Cc2ccccc2)C(C)C)cc1 | -1.02 |
| COc1ccc(C2CC(c3cccs3)=NN2C(=O)CSc2nncs2)cc1OC (centres unmarked) | -0.541 |
| O=C(OCC(=O)c1c[nH]c2ccccc12)c1cc(S(=O)(=O)N2CCOCC2)ccc1F | 2.38 |
| CC(CC(=O)N1CCN(c2ccccc2F)CC1)c1ccccc1 (centres unmarked) | 14.6 |
